{"source": "PubChem BioAssay AID2101", "about": "(National Center for Advancing Translational Sciences (NCATS), 2009)", "note": "Hit rate of the full screen: of about 330,000 compounds, about 300 (0.091%) were called active. The shares of active, inactive and inconclusive entries below differ from those in the screen. Calls follow the shape of the dose curve; as a rule, active = well fitted inhibition curve with a large enough effect; inconclusive = small, poorly fitted or top-dose-only effect, or effect the other way, or another doubt; inactive = no such curve, though single readings can be large or run the other way. Potencies of inconclusive entries are left out as doubtful fits. Potency is read from the fitted curve at half-maximal effect.", "data": [{"biological_target": "Lysosomal acid glucosylceramidase (Homo sapiens) (UniProt P04062)", "test": "qHTS Assay for Inhibitors and Activators of N370S glucocerebrosidase as a Potential Chaperone Treatment of Gaucher Disease;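 as to activity change, negative = inhibition: 0% = full enzyme activity and -100% = no enzyme basal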", "conditions": "N370S GC spleen homogenate, 4MU-glucoside fluorescence; activity change, negative = inhibition: at 59.4 µM (top of the series) unless noted", "values": [{"smiles": "CCCC[P+](CCCC)(CCCC)Cc1ccc(NC(=O)[C@@H](Cc2ccc3ccccc3c2)NC(=NC2CCCCC2)NC2CCCCC2)cc1", "Potency": "inconclusive [inhibitor, single point]"}, {"smiles": "CCN1CCSc2ccc(C(=O)NCc3cc(Br)ccc3OC)cc21", "Potency": "inconclusive [activator, single point]"}, {"smiles": "COc1ccc(C2CC(c3ccccc3OC(C)=O)=NN2C(=O)/C=C/c2ccccc2)cc1", "note": "(stereo not drawn)", "Potency": "inconclusive [activator, full curve]"}, {"smiles": "Cc1cc(C(=O)CSc2nnc(-c3cccnc3)n2-c2ccccc2)c(C)n1CC1CCCO1", "note": "(stereo not drawn)", "activity change, negative = inhibition": "inconclusive: 33.1% [activator]"}, {"smiles": "CCCC(=O)NC(c1ccc(OC)cc1)c1c(O)ccc2ccccc12", "note": "(stereo not drawn)", "Potency": "inconclusive [activator, partial curve]"}, {"smiles": "O=C1C2=C(C(c3ccccc3)=NCCN2)C(c2cccc([N+](=O)[O-])c2)N1c1ccccc1", "note": "(stereo not drawn)", "Potency": "inconclusive [inhibitor, single point]"}, {"smiles": "CCCCn1c(N)c(-c2nc3ccccc3s2)c2c([N+](=O)[O-])nn(C)c(=O)c21", "Potency": "inconclusive [activator, full curve]"}, {"smiles": "Oc1ccccc1Nc1ccccn1", "activity change, negative = inhibition": "inactive: 8.88%"}, {"smiles": "Cc1cccn2c(=O)c(/C=C(\\C#N)S(=O)(=O)c3ccccc3)c(N3CCCCC3)nc12", "Potency": "inconclusive [activator, partial curve]"}, {"smiles": "CCN(CC)S(=O)(=O)c1cc(C(=O)Nc2cc(Cl)ccc2N2CCN(C)CC2)ccc1Cl", "Potency": "inconclusive [inhibitor, partial curve]"}, {"smiles": "CCSc1nnc(NC(=O)c2ccco2)s1", "activity change, negative = inhibition": "inactive: 0.0496%"}, {"smiles": "COc1ccc(/C(C)=N/Nc2nc3ccccc3n3cnnc23)cc1OC", "Potency": "inconclusive [inhibitor, single point]"}, {"smiles": "COC(=O)CSc1nc2c(c(-c3ccc(C)o3)c1C#N)CCCC2", "Potency": "inconclusive [activator, partial curve]"}, {"smiles": "COc1cc(/C=C2\\C(=O)ON=C2c2ccccc2)cc(Br)c1O", "activity change, negative = inhibition": "inactive: -7.8%"}, {"smiles": "CC(C)CC[n+]1ccn(-c2nc3ccccc3nc2[N-]S(=O)(=O)c2ccc(Cl)cc2)c1", "Potency": "inconclusive [activator, full curve]"}, {"smiles": "Cc1cc(C)c(C#N)c(SCc2ccc(C(=O)O)cc2)n1", "activity change, negative = inhibition": "inactive: -1.72%"}, {"smiles": "Cc1nn2c(N3CCCC3)cc(C(C)C)nc2c1-c1ccccc1", "activity change, negative = inhibition": "inactive: 2.52%"}, {"smiles": "COc1cc(O)ccc1/C=N/NC(=O)c1ccc([N+](=O)[O-])cc1", "Potency": "inconclusive [inhibitor, full curve, poor fit]"}, {"smiles": "CO/N=C(\\C)CCN1CCCc2nc(C)c(C)cc21", "activity change, negative = inhibition": "inactive: 5.58% [at 12.8 µM]"}, {"smiles": "COCc1cc(C)nc(NCCc2ccccc2)c1C#N", "activity change, negative = inhibition": "inactive: 11.3%"}, {"smiles": "O=C(CN1CCOc2ccccc21)NCc1ccco1", "activity change, negative = inhibition": "inactive: 8.73%"}, {"smiles": "CC1(C)C(c2cccs2)=[N+]([O-])C2(CCCCC/C2=N\\NC(N)=S)N1O", "note": "(stereo not drawn)", "activity change, negative = inhibition": "inactive: 3.62%"}, {"smiles": "Cc1cccn2c(=O)c3cc(C(=O)NCCc4ccccc4)sc3nc12", "Potency": "inconclusive [activator, full curve]"}, {"smiles": "O=C(Nc1cc(S(=O)(=O)N2CCOCC2)ccc1N1CCOCC1)c1cc(=O)[nH]c2ccccc12", "activity change, negative = inhibition": "inactive: 4.44%"}, {"smiles": "CC(C)(C)C(=O)N1CCN(c2ccc([N+](=O)[O-])c(NCc3cccnc3)c2)CC1", "Potency": "inconclusive [inhibitor, single point]"}, {"smiles": "CN1C2CC(OC(=O)C(CO)c3ccccc3)C[C@@H]1[C@H]1OC21", "note": "(stereo partly drawn)", "activity change, negative = inhibition": "inactive: -1.76%"}, {"smiles": "O=C(NCCN1CCOCC1)c1ccc(Cl)c(S(=O)(=O)N2CCCCCC2)c1", "Potency": "inconclusive [inhibitor, single point]"}, {"smiles": "O=C(/C=C/c1cccc(C(F)(F)F)c1)NNC(=O)c1ccncc1", "Potency": "inconclusive [inhibitor, full curve, poor fit]"}, {"smiles": "Cc1cc(=O)n2ccccc2c1C#N", "Potency": "inconclusive [activator, partial curve]"}, {"smiles": "Cc1nn(C(C)C(=O)N/N=C/c2ccc(N(C)C)cc2)c(C)c1[N+](=O)[O-]", "note": "(stereo not drawn)", "Potency": "inconclusive [inhibitor, single point]"}, {"smiles": "CC1=C(C(=O)OC2CCCC(C)C2)C(c2ccccc2)NC(=O)N1", "note": "(stereo not drawn)", "Potency": "inconclusive [activator, full curve, poor fit]"}, {"smiles": "CCN(CC)CCOC(=O)c1ccc(N/C=C(/C#N)c2nc(-c3cccc(OC)c3)cs2)cc1", "Potency": "inconclusive [inhibitor, partial curve]"}, {"smiles": "COc1ccc(NC2=C(Cl)C(=O)N(CCc3ccccc3)C2=O)cc1", "activity change, negative = inhibition": "inactive: -6.7%"}, {"smiles": "O=S(=O)(NCc1ccco1)c1ccc(S(=O)(=O)N2CCCC2)cc1", "activity change, negative = inhibition": "inactive: 15.6%"}, {"smiles": "Cc1cccc(NC(=O)c2nc[nH]c2C(=O)N[C@@H](C)C(=O)OC(C)(C)C)c1", "Potency": "inconclusive [activator, partial curve]"}, {"smiles": "COc1cccc(NC(=O)c2sc3nc(N4CCOCC4)c4c(c3c2N)CCCC4)c1", "Potency": "inconclusive [activator, single point]"}, {"smiles": "O=c1c(O)c(-c2cc(O)c(O)c(O)c2)oc2cc(O)ccc12", "activity change, negative = inhibition": "inactive: -8.9%"}, {"smiles": "Cc1ccc(-c2cc(C(=O)NCCCn3ccnc3)c3cc(Br)ccc3n2)o1", "activity change, negative = inhibition": "inactive: -24.3%"}, {"smiles": "COc1ccc(-c2nc3ccccc3c(C(=O)Nc3ccc(S(=O)(=O)Nc4cc(C)on4)cc3)c2C)cc1", "Potency": "inconclusive [inhibitor, full curve, poor fit]"}, {"smiles": "COc1ccc(/C=C2\\CCC(C3CCCC3)C2=O)cc1Cn1cccn1", "note": "(stereo not drawn)", "Potency": "inconclusive [activator, partial curve]"}, {"smiles": "COCCn1c(=O)c(-c2cccs2)nc2cnc(Oc3ccccc3)nc21", "Potency": "inconclusive [activator, partial curve]"}, {"smiles": "Cc1nc(-c2ccc(NC(=O)c3ccc(Br)o3)cc2)cs1", "activity change, negative = inhibition": "inactive: -5.34%"}, {"smiles": "COc1ccc(N(CC(=O)Nc2cccc(C(C)=O)c2)S(=O)(=O)c2ccc(NC(C)=O)cc2)cc1", "Potency": "inconclusive [inhibitor, single point]"}, {"smiles": "O=C(NCc1ccc2c(c1)OCO2)C12CC3CC(CC(C3)C1)C2", "Potency": "inconclusive [activator, partial curve, poor fit]"}, {"smiles": "O=C(COc1ccc(Br)cc1Br)NC(=O)NC1CCCC1", "Potency": "inconclusive [activator, partial curve]"}, {"smiles": "CC(C)CC(=O)N1CCN(Cc2ccccc2Cl)CC1", "Potency": "inconclusive [inhibitor, single point]"}, {"smiles": "Nc1ccc2oc3ccccc3c2c1", "activity change, negative = inhibition": "inactive: -10.8%"}, {"smiles": "O=c1ccc2ccc(Oc3ccc([N+](=O)[O-])cc3[N+](=O)[O-])cc2o1", "Potency": "inconclusive [activator, partial curve]"}, {"smiles": "Cc1ccc(NC(=O)CN(C)C(=O)C(C)OC(=O)c2ccccc2NCCO)cc1", "note": "(stereo not drawn)", "Potency": "inconclusive [activator, partial curve]"}, {"smiles": "Cc1[nH]n(-c2ccc([N+](=O)[O-])cc2)c(=O)c1C=NCCN1CCN(C(=O)c2ccc(Br)cc2)CC1", "activity change, negative = inhibition": "inactive: 0.0361%"}, {"smiles": "N=c1oc2cc(O)ccc2cc1C(=O)Nc1ccc(Br)cc1", "Potency": "inconclusive [activator, single point]"}, {"smiles": "S=c1nc(-c2ccccc2Cl)n(Cc2cccnc2)c2c1CCCC2", "Potency": "inconclusive [inhibitor, partial curve, poor fit]"}, {"smiles": "CN1CCN(NC(=O)CN2C(=O)/C(=C/c3ccccc3F)SC2=S)CC1", "Potency": "inconclusive [inhibitor, single point]"}, {"smiles": "CN(Cc1ccc(F)cc1)C(=O)c1cccc(S(=O)(=O)N2CCN(Cc3ccccc3)CC2)c1", "Potency": "inconclusive [inhibitor, partial curve, poor fit]"}, {"smiles": "Oc1ccccc1/C=N/Nc1cccc2cccnc12", "activity change, negative = inhibition": "inactive: -13%"}, {"smiles": "COc1cc(C(CCN2CCCC2)c2c(OC)cc(OC)c3c(-c4ccccc4)cc(=O)oc23)cc(OC)c1OC", "note": "(stereo not drawn)", "Potency": "inconclusive [inhibitor, partial curve]"}, {"smiles": "Cc1cccn2c(=O)c3cc(C(=O)N4CCCCC4)sc3nc12", "Potency": "inconclusive [activator, full curve]"}, {"smiles": "COC(=O)C1=CN(Cc2ccc(F)cc2)C=C(C(=O)OC)C1c1cc(OC)c(OC)c(OC)c1", "Potency": "inconclusive [activator, partial curve]"}, {"smiles": "Cc1ccc(S(=O)(=O)N2CCN(c3ccnc4cc(Cl)ccc34)CC2)cc1C", "Potency": "inconclusive [inhibitor, partial curve]"}, {"smiles": "CCOC(=O)c1cccc(NC(=O)C2CCN(S(=O)(=O)c3cccs3)CC2)c1", "Potency": "inconclusive [inhibitor, single point]"}, {"smiles": "CS(=O)(=O)N(CC(=O)NC1CCCC1)c1ccc(Oc2ccccc2)cc1", "Potency": "inconclusive [inhibitor, single point]"}, {"smiles": "CCOC(=O)N/N=C/c1ccccc1F", "activity change, negative = inhibition": "inactive: 8.81%"}, {"smiles": "Clc1ccc2c(c1)N=C(N1CCNCC1)c1ccccc1N2", "Potency": "inconclusive [inhibitor, full curve, poor fit]"}, {"smiles": "Cc1cc(/C=C2\\SC(=S)NC2=O)c(C)n1-c1cccc(O)c1", "activity change, negative = inhibition": "inactive: 25.7%"}, {"smiles": "COc1ccc(C)cc1N(C)C(=O)c1coc(=O)c2ccccc12", "Potency": "inconclusive [inhibitor, single point]"}, {"smiles": "CCOc1ccc(NC(=O)COC(=O)C2C3CC4OC(=O)C2C4C3)cc1", "note": "(stereo not drawn)", "Potency": "inconclusive [activator, partial curve]"}, {"smiles": "CCCCCCCC(=O)Nc1ccc(C(=O)N/N=C/c2cccc([N+](=O)[O-])c2)cc1", "activity change, negative = inhibition": "inactive: 3.55%"}, {"smiles": "O=Cc1c(NCc2ccccc2)c2ccccc2[nH]c1=O", "Potency": "inconclusive [inhibitor, full curve]"}]}]}
